These results are taken from PMC8237258 (Journal of Medicinal Chemistry, 2021).

Where a SMILES comes first, the peptide text is derived from it. Bridges are numbered along the chain shown (N, C = ends).

For data set [1] the following is noted: cited from earlier work.
The conditions of data set [2]: in vitro, simulated intestinal conditions / intestinal environment; cited from earlier work.
The conditions of data set [3]: SIF. Here is the method:
. Simulated gastric fluid (SGF) was prepared by dissolving 20 mg of NaCl and 8 mg of pepsin in 70 μL of concentrated HCl (32%), and the volume was diluted to 10 mL with water (pH 1.3).[36] Simulated intestinal fluid (SIF) was prepared by dissolving 68 mg of KH2PO4 in 500 μL of water followed by the addition of 800 μL of 0.2 M NaOH and 100 mg of porcine pancreatin, and the volume was adjusted to 10 mL with water (pH 6.8).[36] Peptide stock solution (2 mg/mL in water, 15 μL) was diluted in 285 μL of SGF or SIF and incubated at 37 °C. Aliquots (30 μL) were withdrawn at 0 min, 5 min, 15 min, 30 min, 1 h, 2 h, 4 h, and 8 h and subsequently quenched with 30 μL of 0.2 M Na2CO3 (SGF) or 10% aqueous TFA (SIF). The samples were centrifuged, and the supernatant (15 μL) was analyzed by analytical HPLC. The remaining peptide was determined by measuring the peak area and expressing it as a percentage of the peak area at the 0 h time point. Peptide half-life (t1/2) was determined from the degradation profiles and calculated using Prism 7 (GraphPad, La Jolla USA), assuming an exponential one-phase decay.

As for `C[C@@H]1NC(=O)[C@@H]2CCCN2C(=O)[C@H](CC(N)=O)NC(=O)[C@@H]2CSSC[C@H](N)C(=O)N[C@H]3CSSC[C@H](NC1=O)C(=O)N[C@@H]([C@@H](C)O)C(=O)NCC(=O)N[C@H](C(=O)N[C@@H](Cc1ccc(O)cc1)C(=O)O)CSSC[C@H](NC(=O)[C@H](Cc1ccc(O)cc1)NC(=O)[C@H](CCC(=O)O)NC3=O)C(=O)N2` [Linaclotide] (H-CCEYCCNPACTGCY-OH; disulfide 1-6, 2-10, 5-13 (inferred)), the “time stable in the gastric environment” value in data set [1] was “at least 3 h”. In addition, in data set [2], the “time within which degraded” value is listed as at most 1 h.
Regarding `C[C@@H]1NC(=O)[C@@H]2CCCN2C(=O)[C@H](CC(N)=O)NC(=O)[C@@H]2CSSC[C@@H]3NC(=O)[C@H](Cc4ccc(O)cc4)NC(=O)[C@@H]4CSSC[C@H](NC(=O)[C@H](Cc5ccc(O)cc5)NC(=O)[C@H](CCC(=O)O)NC(=O)[C@H](CSSC[C@H](NC1=O)C(=O)N[C@@H]([C@@H](C)O)C(=O)NCC(=O)N4)NC3=O)C(=O)N2` [[cyclic]-Linaclotide] (cyclo(ACTGCYCCEYCCNP); disulfide 2-8, 5-11, 7-12), in data set [3], the “relative stability among the newly designed analogues” value is reported as “least stable”.
